# In PMC6919601, “Identification of Plasmodium dipeptidyl aminopeptidase allosteric inhibitors by high throughput screening” (PLoS ONE, 2019):
# About 230 (0.21%) of roughly 110,000 compounds showed an effect of 50% or more. Some of the results follow.
# Target: DPAP1 (Plasmodium falciparum, UniProt Q8IIJ9)
# Assay: primary screen, percent inhibition; read by cleavage of a fluorogenic dipeptide substrate; higher = more effect of the substance
# Design: species or system P. falciparum D10 trophozoite lysates; single well
# 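Also: 30 min substrate incubation versus DMSO and 10 µM JCP410 controls.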
# DPAP1, sequence (Q8IIJ9 whole entry, looked up): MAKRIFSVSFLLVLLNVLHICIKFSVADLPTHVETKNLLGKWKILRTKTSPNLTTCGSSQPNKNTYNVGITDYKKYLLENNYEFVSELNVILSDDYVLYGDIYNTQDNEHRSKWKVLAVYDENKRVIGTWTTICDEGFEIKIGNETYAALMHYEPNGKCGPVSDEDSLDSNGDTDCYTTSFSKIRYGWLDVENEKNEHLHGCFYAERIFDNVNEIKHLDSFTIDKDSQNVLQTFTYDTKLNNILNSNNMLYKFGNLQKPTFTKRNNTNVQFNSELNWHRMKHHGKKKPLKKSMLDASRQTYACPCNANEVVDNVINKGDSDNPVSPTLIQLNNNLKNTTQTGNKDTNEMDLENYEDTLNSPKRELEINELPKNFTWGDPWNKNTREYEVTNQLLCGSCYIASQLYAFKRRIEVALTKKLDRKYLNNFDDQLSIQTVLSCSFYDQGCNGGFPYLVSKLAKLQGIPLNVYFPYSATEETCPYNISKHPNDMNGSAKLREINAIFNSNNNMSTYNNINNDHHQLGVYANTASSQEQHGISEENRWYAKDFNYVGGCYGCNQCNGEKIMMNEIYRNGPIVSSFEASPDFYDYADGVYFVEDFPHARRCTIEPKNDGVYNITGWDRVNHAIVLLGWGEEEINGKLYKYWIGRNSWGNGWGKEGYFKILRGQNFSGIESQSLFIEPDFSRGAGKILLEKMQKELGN
row,SMILES,% Inhibition @ 10 uM
1,N#Cc1nc(COc2ccc(Cl)cc2)oc1NCCc1ccccc1,0.726%
2,COc1ccc(-c2nc(Cc3c[nH]c4ccccc34)sc2C)cc1,7.17%
3,O=C(NCCCO)/C(=C\c1ccco1)NC(=O)c1ccc(Br)o1,-0.941%
4,Cc1ccc(C(=O)Nc2cccc(C(F)(F)F)c2)cc1,-0.351%
5,CC1(C)CC2=Nc3ccccc3NC(/C=C/c3ccccc3)C2=C(O)C1 (centres unmarked),-3.27%
6,COc1ccc(CCNC(=O)c2ccc(Cn3cc(Cl)cn3)cc2)cc1,0.413%
7,CC1=C(C#N)C(=O)N(CCO)C(=O)/C1=C\c1ccc(-c2ccc(C)c(Cl)c2)o1,-1.26%
8,CC1CCCC(C)N1S(=O)(=O)c1ccc(Br)cc1 (centres unmarked),0.605%
9,CCC(C(=O)NC1CCCC(C)C1C)n1c2ccccc2c2cnnc(O)c21 (centres unmarked),-0.281%
10,Cc1nn(-c2cccc3ccccc23)c(=O)c2ccccc12,-2.44%
11,CCc1ccccc1NC(=O)COc1cccc2ccc(C)nc12,-6.05%
12,O[C@@H]1CCN[C@H]2CCCC[C@H]12,-8.19%
13,COc1ccc(N2C(=O)C(Cl)=C(Nc3cccc(OC)c3)C2=O)cc1,-1.3%
14,COc1ccc(-c2cc(-c3ccccc3)nc(N3CCCC3)n2)cc1OC,0.827%
15,COC(=O)c1sccc1NC(=O)COCc1cc(-c2ccc3c(c2)OCO3)on1,-1.62%
16,Cc1ccccc1CCNCc1c(C(=O)O)n(Cc2ccc(Cl)cc2)c2ccccc12,1.17%
17,CC1=NN(C(=O)Cc2ccccc2)C(C)(C)C1,1.62%
18,N#Cc1c(NC(=O)c2cccc(F)c2F)sc2c1CCCC2,-4.67%
19,Cc1ccc2oc(=O)c3cc(C(=O)NCCCN4CCCC4=O)sc3c2c1,0.521%
20,N=C1/C(=C\c2ccc(O)cc2)C(=O)N=C2SC(N3CCOCC3)=NN12,0.0579%
21,C/C(Cl)=C/CSc1nc2c(c(=O)[nH]c(=O)n2C)n1CCc1ccccc1,3.05%
22,Cc1nc(N2CCOCC2)c2c(C)c(C(=O)NC(C)c3ccccc3)sc2n1 (centres unmarked),-3.21%

row,SMILES,% Inhibition @ 10 uM
1,COc1ccc2nc(C)cc(Nc3cccc(Cl)c3)c2c1,-2.67%
2,CC(C)CCOc1ccc(C(=O)CCNC(CC(C)C)C(=O)O)cc1 (centres unmarked),30.1%
3,CC1CN(C)C(c2ccccc2)C(C)C12NC(=O)NC2=O (centres unmarked),-6.25%
4,CCOCCCNC(=O)C1CCN(c2nc3ccc(CC)cc3s2)CC1,-1.31%
5,CCOC(=O)N1CCC(/N=c2\c(O)c(O)\c2=N/CCCN2CCN(C3CCCCC3)CC2)CC1,-3.21%
6,Cc1ccccc1C(=O)N(Cc1cccs1)C1CCS(=O)(=O)C1 (centres unmarked),1.64%
7,c1ccc(CN2CCC(N3CCOCC3)CC2)cc1,0.217%
8,Cn1c(=O)c(=O)[nH]c2c(=O)oc3ccccc3c21,0.974%
9,COc1ccc(NC2CC(=O)N(c3ccc(N4CCOCC4)cc3)C2=O)cc1 (centres unmarked),3.1%
10,CCc1ccc(C(=O)NC2=NC(=O)CC(c3ccc(C)cc3)N2)cc1 (centres unmarked),2.65%
11,COc1ccc(N2C(=O)C(Cl)=C(Nc3ccccc3C)C2=O)cc1,-5.48%
12,N#Cc1c(SCC(=O)NCCc2ccccc2)nsc1SCC(=O)NCCc1ccccc1,-1.24%
13,O=C(O)c1ccccc1C(=O)N1CCN(Cc2ccccc2)CC1,-2.67%
14,NC(=O)c1ccc(NC(=O)CCC2CCCC2)cc1,-1.65%
15,COc1ccc(-n2cccc2/C=C2\C(=N)N3N=C(c4ccco4)SC3=NC2=O)cc1,0.208%
16,O=C(CC(Nc1ccccc1)c1ccccc1)c1ccccc1 (centres unmarked),-2.28%
17,Cc1ccc(N2C(=O)NC(=O)/C(=C/NCC(=O)O)C2=O)cc1C,-0.736%
18,C=CC1OCC2(COC(C)=O)C(C)C=C(C)C1C2C (centres unmarked),1.54%
19,CC(C)c1ccc(C2=CC(c3cccc(Br)c3)n3ncnc3N2)cc1 (centres unmarked),-1.48%
20,C=Cc1ccc(Cn2c(C(=O)O)c(CNCc3ccc4c(c3)OCO4)c3ccc(OC)cc32)cc1,8.11%
21,O=C(/C=C/c1cccc(Cl)c1)OCCN1CCN(C2=NS(=O)(=O)c3ccccc32)CC1,-1.47%
22,Cc1cc(C(=O)N2CCOCC2)c2c(C)nn(-c3ccccc3)c2n1,2.12%

row,SMILES,% Inhibition @ 10 uM
1,O=C(CSc1ccc(-c2cccs2)nn1)c1ccccc1,1.68%
2,O=S(=O)(c1ccc(Br)c(S(=O)(=O)N2CCCCC2)c1)N1CCCCC1,-3.01%
3,CC(Oc1ccccc1Cl)C(=O)NCc1ccccn1 (centres unmarked),0.35%
4,CCOc1ccccc1/C=c1\sc2nc(-c3ccccc3Br)nn2c1=O,-1.18%
5,Cc1nonc1NC(=O)c1cc2ccccc2oc1=O,-1.47%
6,O=C(Nc1cccnc1)c1ccc2c(c1)C(=O)N(c1ccccc1-c1ccccc1)C2=O,12.3%
7,COc1ccc(CC(=O)Nc2cc(Cl)c(Cl)cc2Cl)cc1,-0.856%
8,N#CC1=C(N)Oc2nc(-c3ccccc3)[nH]c2C1c1cccnc1 (centres unmarked),3.45%
9,COc1cccc(OCC(O)CN2CCN(c3ccccc3)CC2)c1 (centres unmarked),-5.7%
10,CC(C)CN1CC(=O)C(c2nc3ccccc3s2)=C1N,-4.82%
11,Cc1ccc(/C=C2\Sc3ccccc3C2=O)s1,-5%
12,O=C(C1CCCN(c2nnc(-n3cccc3)s2)C1)N1CCC2(CC1)OCCO2 (centres unmarked),1.15%
13,COc1ccc(-c2[nH]nc3nc(-c4ccccc4C)cc(C(=O)O)c23)cc1,-5.42%
14,CCOC(=O)C1=C(c2ccccc2)NC(=O)NC1c1ccccc1OC (centres unmarked),6.22%
15,CN1CCN(CCOCCOc2c(Cl)cc(Cl)cc2Cl)CC1,-3.65%
16,O=C1N=C(N2CCCCC2)S/C1=C/c1cccc2ccccc12,-0.597%
17,CC(=O)Nc1ccc(S(=O)(=O)N2CCCc3ccccc32)cc1,-0.687%
18,CCOc1ccc(C(=O)Nc2ccccc2)cc1,1.83%
19,CCCCNS(=O)(=O)c1ccc(F)c(C(=O)O)c1F,-2.26%
20,CCCC1CCC(C2=N/C(=C\c3cc(OC)c(OC)cc3OC)C(=O)O2)CC1 (centres unmarked),-3.33%
21,Cc1nc(O)nc(O)c1S(=O)(=O)NCc1nnc(O)c2ccccc12,-1.82%
